Results on 31 molecules are retold here after PMC9911399, “Two distinct binding modes provide the RNA-binding protein RbFox with extraordinary sequence specificity”.

To fix the notation:
T1: RBFOX1 RRM RbFoxmut (Fox-RRM*) (Homo sapiens, UniProt Q9NWB1 109-208, R118D;E147R;N151S;E152T)
T1 sequence: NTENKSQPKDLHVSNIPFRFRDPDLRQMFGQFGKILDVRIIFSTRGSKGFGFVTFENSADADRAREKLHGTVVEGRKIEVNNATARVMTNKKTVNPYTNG

B1: GUUGCCG (DNA:RNA)
RNA: GGGAGACCGGAAUUCAGAUUGUCCGUUGCCGUUAAAUCCCGUCGUAGCCACCA
DNA 1: CAATCTGAATTCCGGTCTCCC
DNA 2: TGGTGGCTACGACGGGATT
B2: UUGGACU (DNA:RNA)
RNA: B1 RNA with G25U, U27G, C29A, G31U
DNA 1: CAATCTGAATTCCGGTCTCCC
DNA 2: TGGTGGCTACGACGGGATT
B3: UGCGUGU (DNA:RNA)
RNA: B1 RNA with G25U, U26G, U27C, C29U, C30G, G31U
DNA 1: CAATCTGAATTCCGGTCTCCC
DNA 2: TGGTGGCTACGACGGGATT
B4: CGCAGUA (DNA:RNA)
RNA: GGGAGACCGGAAUUCAGAUUGUCCCGCAGUAUUAAAUCCCGUCGUAGCCACCA
DNA 1: CAATCTGAATTCCGGTCTCCC
DNA 2: TGGTGGCTACGACGGGATT
B5: CCCACGU (DNA:RNA)
RNA: B4 RNA with G26C, G29C, U30G, A31U
DNA 1: CAATCTGAATTCCGGTCTCCC
DNA 2: TGGTGGCTACGACGGGATT
B6: CAGUCGC (DNA:RNA)
RNA: B4 RNA with G26A, C27G, A28U, G29C, U30G, A31C
DNA 1: CAATCTGAATTCCGGTCTCCC
DNA 2: TGGTGGCTACGACGGGATT
B7: UCAUAGA (DNA:RNA)
RNA: B4 RNA with C25U, G26C, C27A, A28U, G29A, U30G
DNA 1: CAATCTGAATTCCGGTCTCCC
DNA 2: TGGTGGCTACGACGGGATT
B8: UACCAAA (DNA:RNA)
RNA: B4 RNA with C25U, G26A, A28C, G29A, U30A
DNA 1: CAATCTGAATTCCGGTCTCCC
DNA 2: TGGTGGCTACGACGGGATT
B9: UAUAUGU (DNA:RNA)
RNA: B4 RNA with C25U, G26A, C27U, G29U, U30G, A31U
DNA 1: CAATCTGAATTCCGGTCTCCC
DNA 2: TGGTGGCTACGACGGGATT
B10: CAAGCUC (DNA:RNA)
RNA: B4 RNA with G26A, C27A, A28G, G29C, A31C
DNA 1: CAATCTGAATTCCGGTCTCCC
DNA 2: TGGTGGCTACGACGGGATT
B11: CGCCCGU (DNA:RNA)
RNA: B4 RNA with A28C, G29C, U30G, A31U
DNA 1: CAATCTGAATTCCGGTCTCCC
DNA 2: TGGTGGCTACGACGGGATT
B12: GCAACAC (DNA:RNA)
RNA: B1 RNA with U26C, U27A, G28A, C30A, G31C
DNA 1: CAATCTGAATTCCGGTCTCCC
DNA 2: TGGTGGCTACGACGGGATT
B13: AUAGUUC (DNA:RNA)
RNA: B1 RNA with G25A, U27A, C29U, C30U, G31C
DNA 1: CAATCTGAATTCCGGTCTCCC
DNA 2: TGGTGGCTACGACGGGATT
B14: AGUUCGC (DNA:RNA)
RNA: B1 RNA with G25A, U26G, G28U, C30G, G31C
DNA 1: CAATCTGAATTCCGGTCTCCC
DNA 2: TGGTGGCTACGACGGGATT
B15: GAACCCG (DNA:RNA)
RNA: B1 RNA with U26A, U27A, G28C
DNA 1: CAATCTGAATTCCGGTCTCCC
DNA 2: TGGTGGCTACGACGGGATT
B16: UGAACUA (DNA:RNA)
RNA: B4 RNA with C25U, C27A, G29C
DNA 1: CAATCTGAATTCCGGTCTCCC
DNA 2: TGGTGGCTACGACGGGATT
B17: UCGACGG (DNA:RNA)
RNA: B1 RNA with G25U, U26C, U27G, G28A, C30G
DNA 1: CAATCTGAATTCCGGTCTCCC
DNA 2: TGGTGGCTACGACGGGATT
B18: GUACCCC (DNA:RNA)
RNA: B1 RNA with U27A, G28C, G31C
DNA 1: CAATCTGAATTCCGGTCTCCC
DNA 2: TGGTGGCTACGACGGGATT
B19: ACGCGCU (DNA:RNA)
RNA: B4 RNA with C25A, G26C, C27G, A28C, U30C, A31U
DNA 1: CAATCTGAATTCCGGTCTCCC
DNA 2: TGGTGGCTACGACGGGATT
B20: CGGCCGA (DNA:RNA)
RNA: B4 RNA with C27G, A28C, G29C, U30G
DNA 1: CAATCTGAATTCCGGTCTCCC
DNA 2: TGGTGGCTACGACGGGATT
B21: GUGGACU (DNA:RNA)
RNA: B1 RNA with U27G, C29A, G31U
DNA 1: CAATCTGAATTCCGGTCTCCC
DNA 2: TGGTGGCTACGACGGGATT
B22: CACGAGC (DNA:RNA)
RNA: B4 RNA with G26A, A28G, G29A, U30G, A31C
DNA 1: CAATCTGAATTCCGGTCTCCC
DNA 2: TGGTGGCTACGACGGGATT
B23: UGAGUAC (DNA:RNA)
RNA: B4 RNA with C25U, C27A, A28G, G29U, U30A, A31C
DNA 1: CAATCTGAATTCCGGTCTCCC
DNA 2: TGGTGGCTACGACGGGATT
B24: AAGCCGG (DNA:RNA)
RNA: B1 RNA with G25A, U26A, U27G, G28C, C30G
DNA 1: CAATCTGAATTCCGGTCTCCC
DNA 2: TGGTGGCTACGACGGGATT
B25: GAUCGCG (DNA:RNA)
RNA: B1 RNA with U26A, G28C, C29G
DNA 1: CAATCTGAATTCCGGTCTCCC
DNA 2: TGGTGGCTACGACGGGATT
B26: ACGGCUA (DNA:RNA)
RNA: B4 RNA with C25A, G26C, C27G, A28G, G29C
DNA 1: CAATCTGAATTCCGGTCTCCC
DNA 2: TGGTGGCTACGACGGGATT
B27: CGGCGAA (DNA:RNA)
RNA: B4 RNA with C27G, A28C, U30A
DNA 1: CAATCTGAATTCCGGTCTCCC
DNA 2: TGGTGGCTACGACGGGATT
B28: GGACAUG (DNA:RNA)
RNA: B4 RNA with C25G, C27A, A28C, G29A, A31G
DNA 1: CAATCTGAATTCCGGTCTCCC
DNA 2: TGGTGGCTACGACGGGATT
B29: UGACGGC (DNA:RNA)
RNA: B4 RNA with C25U, C27A, A28C, U30G, A31C
DNA 1: CAATCTGAATTCCGGTCTCCC
DNA 2: TGGTGGCTACGACGGGATT
B30: UAGCAAC (DNA:RNA)
RNA: GGGAGACCGGAAUUCAGAUUGUCCUAGCAACUUAAAUCCCGUCGUAGCCACCA
DNA 1: CAATCTGAATTCCGGTCTCCC
DNA 2: TGGTGGCTACGACGGGATT
B31: AUUUGGG (DNA:RNA)
RNA: B1 RNA with G25A, G28U, C29G, C30G
DNA 1: CAATCTGAATTCCGGTCTCCC
DNA 2: TGGTGGCTACGACGGGATT

Numbering of substitutions follows the chain as printed; changes in the protein carry UniProt numbers. The list shows a part of the results.

The test addresses T1, RBFOX1 RRM RbFoxmut (Fox-RRM*). The experiment in a line: EMSA; HiTS-Eq, 1 nM pool, 10 min; buffer printed only for the single-RNA assays: 10 mM Tris pH 7.5, 150 mM NaCl, 3.4 mM EDTA, 0.001% NP-40, 30 C. As to conditions: tags: His6 N-terminal (pET28a); label: 5' 32P. In a few lines:
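These values rest on relative association constants, computed from read-count changes of each RNA species versus the control reaction and normalised to the cognate motif. Reads came from free RNA recovered by 8% native PAGE after purified RbFox RRM (wild type or mutant) at increasing concentrations was equilibrated for 10 min in 50 µL with 1 nM of a 5′-radiolabelled pool with 7 randomized nucleotides and DNA-annealed flanks.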
Background: In EMSA bound probe runs differently from free probe, usually more slowly.
In the case of B1, the binding signal is 0.101 KA relative to UGCAUGU.
On to B2, for which the binding signal was 0.0483 KA relative to UGCAUGU.
For the molecule B3, the binding signal was 0.26 KA relative to UGCAUGU.
With B4, the binding signal is 0.164 KA relative to UGCAUGU.
The same measure for B5: 0.081 KA relative to UGCAUGU; for B6: 0.073 KA relative to UGCAUGU; for B7: 0.114 KA relative to UGCAUGU.
The same measure for B8: 0.0879 KA relative to UGCAUGU; for B9: 0.123 KA relative to UGCAUGU; for B10: 0.0778 KA relative to UGCAUGU.
Next, B11: 0.0999 KA relative to UGCAUGU; B12: 0.0633 KA relative to UGCAUGU.
For B13, the binding signal is 0.103 KA relative to UGCAUGU.
Next, B14: 0.11 KA relative to UGCAUGU; B15: 0.0645 KA relative to UGCAUGU.
As to B16, the binding signal was 0.0868 KA relative to UGCAUGU.
Consider B17, for which the binding signal is 0.0735 KA relative to UGCAUGU.
For the molecule B18, the binding signal was 0.0445 KA relative to UGCAUGU.
Take B19: the binding signal is 0.107 KA relative to UGCAUGU.
With B20, the binding signal is 0.0762 KA relative to UGCAUGU.
As for B21, the binding signal is 0.07 KA relative to UGCAUGU.
The same measure for B22: 0.0679 KA relative to UGCAUGU; for B23: 0.0901 KA relative to UGCAUGU; for B24: 0.0776 KA relative to UGCAUGU.
Next, B25: 0.11 KA relative to UGCAUGU; B26: 0.138 KA relative to UGCAUGU.
The same measure for B27: 0.0938 KA relative to UGCAUGU; for B28: 0.314 KA relative to UGCAUGU.
Turning to B29, the binding signal was 0.086 KA relative to UGCAUGU.
With B30, the binding signal is 0.0671 KA relative to UGCAUGU.
In the case of B31, the binding signal is 0.0751 KA relative to UGCAUGU.
